Data taken from the supplement of paper PMC9135407.
Where “and” joins values, the source holds several entries; their conditions need not be identical. Identical values can stand only once. Counter-ions that a name gives are not always drawn. The whole screen tested about 5,800 compounds, of which about 620 (11%) showed activity.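 The calls were made as follows: active = score above a cut-off or among the top three wells of a plate; in these data no inactive exceeds 0.85.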 This is a selection; strong and weak results do not stand in their true shares.

System: primary human hepatic stellate cells (donor 1)
Assay: scaled lipid accumulation score (0 = DMSO-like, 1 = nortriptyline-like); higher = stronger HSC inactivation (lipid re-accumulation), active = hit call of the paper
Conditions: 48 h
[1] = library stock concentration: 10 mM
[2] = library stock concentration: 80 uM
[3] = library stock concentration: 400 uM
[4] = library stock concentration: 2 mM
[5] = library stock concentration: 1 mM
[6] = library stock concentration: 3.33 mM

CCOc1cc2ncc(C#N)c(Nc3ccc(F)c(Cl)c3)c2cc1NC(=O)/C=C/CN(C)C [Pelitinib (EKB-569)]
scaled lipid accumulation score [1]: inactive: 0.498

CCOc1cc2ncc(C#N)c(Nc3ccc(F)c(Cl)c3)c2cc1NC(=O)/C=C/CN(C)C
scaled lipid accumulation score [2]: inactive: 0.071 | scaled lipid accumulation score [3]: inactive: ≤ -0.009 | scaled lipid accumulation score [4]: inactive: 0.269

CCCCC[C@H](O)/C=C/C1=C(CCCCCCC(=O)O)C(=O)CC1 [Prostaglandin B1]
scaled lipid accumulation score [5]: inactive: ≤ 0 and inactive: ≤ -0.021

CCCc1c(-c2ccc(O)cc2)nn(-c2ccc(O)cc2)c1-c1ccc(O)cc1 [1,3,5-tris(4-hydroxyphenyl)-4-propyl-1H-pyrazole]
scaled lipid accumulation score [1]: inactive: ≤ -0.07

CCCc1c(-c2ccc(O)cc2)nn(-c2ccc(O)cc2)c1-c1ccc(O)cc1 [Propylpyrazole Triol]
scaled lipid accumulation score [5]: inactive: ≤ 0

Oc1c(Cl)cc(Cl)c(Cl)c1Cc1c(O)c(Cl)cc(Cl)c1Cl
scaled lipid accumulation score [1]: inactive: 0.353

Oc1c(Cl)cc(Cl)c(Cl)c1Cc1c(O)c(Cl)cc(Cl)c1Cl [Hexachlorophene]
scaled lipid accumulation score (library stock concentration: 4.9 mM): inactive: ≤ -0.001 | scaled lipid accumulation score [1]: inactive: 0.206

Cc1c(N(C)C)c(=O)n(-c2ccccc2)n1C [Aminopyrine]
scaled lipid accumulation score (library stock concentration: 8.6 mM): inactive: ≤ 0

Cc1c(N(C)C)c(=O)n(-c2ccccc2)n1C [Amidopyrine]
scaled lipid accumulation score: inactive: ≤ 0 | scaled lipid accumulation score [6]: inactive: ≤ 0 | scaled lipid accumulation score [1]: inactive: 0.058

Cc1c(N(C)C)c(=O)n(-c2ccccc2)n1C [Aminophenazone]
scaled lipid accumulation score [1]: inactive: ≤ 0

C=C1C(=O)[C@]23[C@H](O)[C@H]1CC[C@H]2[C@@]12CO[C@]3(O)[C@@H](O)[C@@H]1C(C)(C)CC[C@@H]2O [Oridonin]
scaled lipid accumulation score [6]: inactive: ≤ 0 | scaled lipid accumulation score [1]: inactive: 0.639

NC(=O)c1ccc2[nH]ccc2c1
scaled lipid accumulation score [3]: inactive: ≤ -0.005 | scaled lipid accumulation score [4]: inactive: ≤ -0.005 | scaled lipid accumulation score [1]: inactive: ≤ -0.055 and inactive: ≤ -0.001 and inactive: ≤ -0.005

NC[C@@H]1O[C@H](O[C@H]2[C@@H](O)[C@H](O[C@@H]3[C@@H](O)[C@H](N)C[C@H](N)[C@H]3O[C@H]3O[C@H](CO)[C@@H](O)[C@H](O)[C@H]3N)O[C@@H]2CO)[C@H](N)[C@@H](O)[C@@H]1O [Paromomycin sulfate]
scaled lipid accumulation score: inactive: ≤ 0 | scaled lipid accumulation score [1]: inactive: ≤ 0 and inactive: ≤ -0.027

Nc1nc(CC(=O)Nc2ccc(CCNC[C@H](O)c3ccccc3)cc2)cs1 [Mirabegron]
scaled lipid accumulation score [6]: inactive: ≤ 0 | scaled lipid accumulation score [1]: inactive: 0.331

CC[C@]1(O)C[C@H]2CN(CCc3c([nH]c4ccccc34)[C@@](C(=O)OC)(c3cc4c(cc3OC)N(C=O)[C@H]3[C@@](O)(C(=O)OC)[C@H](OC(C)=O)[C@]5(CC)C=CCN6CC[C@]43[C@@H]65)C2)C1 [Vincristine]
scaled lipid accumulation score [6]: inactive: 0.004 | scaled lipid accumulation score [1]: inactive: 0.512

COc1ccccc1OCC(O)CO (stereo not given) [Guaifenesin]
scaled lipid accumulation score: inactive: ≤ 0 | scaled lipid accumulation score [6]: inactive: ≤ 0 | scaled lipid accumulation score [1]: inactive: 0.084 and inactive: ≤ 0

O=c1cc(N2CCNCC2)oc2c(-c3ccccc3)cccc12
scaled lipid accumulation score [1]: active: 1.28

Cc1cc(=O)[nH]c(=S)[nH]1 [Methylthiouracil]
scaled lipid accumulation score [6]: inactive: ≤ 0 | scaled lipid accumulation score [1]: inactive: ≤ 0 and inactive: ≤ -0.001

Cc1ccc(F)c(NC(=O)Nc2ccc(-c3cccc4[nH]nc(N)c34)cc2)c1
scaled lipid accumulation score [1]: active: 1.08

CC(=O)[C@H]1CC[C@H]2[C@@H]3C=CC4=CC(=O)CC[C@@]4(C)[C@@H]3CC[C@]12C [Dydrogesterone]
scaled lipid accumulation score: inactive: 0.003 | scaled lipid accumulation score [6]: inactive: ≤ 0 | scaled lipid accumulation score [1]: inactive: ≤ -0.001

CN1CCC(=C2c3ccccc3CCc3sccc32)CC1.O=C(O)/C=C\C(=O)O [Pizotyline]
scaled lipid accumulation score [1]: active: 1.2

C(=C/CCNC)(/c1c2cccc1)\c3c(cccc3)CC2.Cl [Nortriptyline hydrochloride]
scaled lipid accumulation score [1]: active: 1.04

C=CC(=O)Nc1cc(-n2c(=O)ccc3cnc4ccc(-c5ccc(NS(C)(=O)=O)cc5)cc4c32)ccc1C
scaled lipid accumulation score [2]: inactive: ≤ -0.001 | scaled lipid accumulation score [3]: inactive: ≤ -0.001 | scaled lipid accumulation score [4]: inactive: 0.003 | scaled lipid accumulation score [1]: inactive: 0.06

CN1[C@@H]2CC[C@H]1C[C@@H](OC(=O)c1c[nH]c3ccccc13)C2 [Tropisetron]
scaled lipid accumulation score [6]: inactive: 0.308 | scaled lipid accumulation score [1]: inactive: 0.518

CN1[C@@H]2CC[C@H]1C[C@@H](OC(=O)c1c[nH]c3ccccc13)C2 [Tropisetron HCl]
scaled lipid accumulation score: inactive: 0.639 | scaled lipid accumulation score (library stock concentration: 7 mM): inactive: 0.312

CN1[C@@H]2CC[C@H]1C[C@@H](OC(=O)c1c[nH]c3ccccc13)C2 [Tropisetron hydrochloride]
scaled lipid accumulation score [1]: inactive: ≤ 0

CN1[C@@H]2CC[C@H]1C[C@@H](OC(=O)c1c[nH]c3ccccc13)C2
scaled lipid accumulation score [1]: inactive: ≤ 0 and inactive: 0.539

CCCCC[C@H](O)/C=C/[C@H]1C(=O)C[C@H](O)[C@@H]1C/C=C\CCCC(=O)NC(CO)CO [Prostaglandin D2 serinol amide]
scaled lipid accumulation score [5]: inactive: ≤ 0

N=C(N)SCCC[C@H](N)C(=O)O [Thioarginine (hydrobromide)]
scaled lipid accumulation score [5]: inactive: ≤ 0

Cc1cccc(C)c1OCC(C)N (stereo not given) [Mexiletine hydrochloride]
scaled lipid accumulation score: inactive: 0.538 | scaled lipid accumulation score (library stock concentration: 9.3 mM): inactive: 0.045 | scaled lipid accumulation score [1]: inactive: 0.226

Cc1cccc(C)c1OCC(C)N (stereo not given) [Mexiletine HCl]
scaled lipid accumulation score [6]: inactive: ≤ 0 | scaled lipid accumulation score [1]: inactive: 0.025

Cc1cccc(C)c1OCC(C)N (stereo not given) [Mexiletene hydrochloride]
scaled lipid accumulation score [1]: inactive: 0.726

CN1CCC(Nc2ncc3ncnc(Nc4ccc(F)c(Cl)c4)c3n2)CC1.Cl.Cl [BIBX 1382 dihydrochloride]
scaled lipid accumulation score [1]: active: 1.61

CN(C(=O)C(Cl)Cl)c1ccc(OC(=O)c2ccco2)cc1 [Diloxanide furoate]
scaled lipid accumulation score: inactive: ≤ 0 | scaled lipid accumulation score (library stock concentration: 6.1 mM): inactive: ≤ 0

CCc1cc(Nc2nccc(-c3c(-c4ccc(OC)c(C(=O)Nc5c(F)cccc5F)c4)nc4ccccn34)n2)c(OC)cc1N1CCC(N2CCN(S(C)(=O)=O)CC2)CC1
scaled lipid accumulation score [2]: inactive: ≤ -0.009 | scaled lipid accumulation score [3]: inactive: 0.004 | scaled lipid accumulation score [4]: inactive: 0.023 | scaled lipid accumulation score [6]: inactive: ≤ 0 | scaled lipid accumulation score [1]: inactive: ≤ 0 and inactive: 0.009

O=C1c2ccc(O)c(O)c2C(=O)c2c(O)ccc(O)c21 [Quinalizarin]
scaled lipid accumulation score [1]: inactive: ≤ 0

COc1cc(/C=C/C(N)=O)cc(OC)c1OC
scaled lipid accumulation score [1]: inactive: 0.006

OC(CCCN1CCN(c2ncc(F)cn2)CC1)c1ccc(F)cc1 (stereo not given)
scaled lipid accumulation score [1]: inactive: 0.038

Nc1ccn([C@H]2CC[C@@H](CO)O2)c(=O)n1 [Zalcitabine]
scaled lipid accumulation score: inactive: ≤ 0 | scaled lipid accumulation score [6]: inactive: ≤ 0 | scaled lipid accumulation score [1]: inactive: ≤ 0

Nc1ccn([C@H]2CC[C@@H](CO)O2)c(=O)n1
scaled lipid accumulation score [1]: inactive: ≤ 0

Nc1ccn([C@H]2CC[C@@H](CO)O2)c(=O)n1 [2',3' - dideoxycytidine]
scaled lipid accumulation score (library stock concentration: 9.5 mM): inactive: ≤ 0

Nc1ccn([C@H]2CC[C@@H](CO)O2)c(=O)n1 [2',3'-dideoxycytidine]
scaled lipid accumulation score [1]: inactive: 0.396

CCCCCCCCCCCCCCC[C@H](O)[C@H](N)CO (racemic) [DL-erythro-Dihydrosphingosine]
scaled lipid accumulation score [1]: inactive: ≤ -0.07

C(=C/CCN(C)C)(/c1c2cccc1)\c3c(cccc3)CC2.Cl [Amitriptyline hydrochloride]
scaled lipid accumulation score [1]: active: 1.11

CN(C)CCOC(C)(c1ccccc1)c1ccccn1 (stereo not given)
scaled lipid accumulation score [1]: inactive: ≤ 0

CN(C)CCOC(C)(c1ccccc1)c1ccccn1 (stereo not given) [Doxylamine Succinate]
scaled lipid accumulation score [6]: inactive: ≤ 0 | scaled lipid accumulation score [1]: inactive: 0.086

CN(C)CCOC(C)(c1ccccc1)c1ccccn1 (stereo not given) [Doxylamine succinate]
scaled lipid accumulation score: inactive: 0.19 | scaled lipid accumulation score (library stock concentration: 5.1 mM): inactive: 0.007 | scaled lipid accumulation score [1]: inactive: ≤ 0 and inactive: ≤ -0.005

C=CCNC(N)=S [Allylthiourea]
scaled lipid accumulation score [6]: inactive: ≤ 0 | scaled lipid accumulation score [1]: inactive: ≤ -0.001

C=CCNC(N)=S
scaled lipid accumulation score [1]: inactive: ≤ 0

CNC(=O)c1cccc(-c2ccc3c(N4CCOC[C@@H]4C)nc(N4CCOC[C@@H]4C)nc3n2)c1
scaled lipid accumulation score [2]: inactive: 0.009 | scaled lipid accumulation score [3]: inactive: ≤ -0.001 | scaled lipid accumulation score [4]: inactive: 0.064 | scaled lipid accumulation score [6]: inactive: 0.037 | scaled lipid accumulation score [1]: inactive: ≤ 0 and inactive: ≤ -0.001

COc1cccc(-c2cc(=O)c3ccccc3o2)c1N
scaled lipid accumulation score [5]: inactive: ≤ 0 | scaled lipid accumulation score [6]: inactive: ≤ 0 | scaled lipid accumulation score [1]: inactive: ≤ 0 and inactive: ≤ -0.006 | scaled lipid accumulation score (library stock concentration: 18.7 mM): inactive: 0.064

C[C@@H](O)[C@H]1C(=O)N2C(C(=O)O)=C(S[C@@H]3CN[C@H](CNS(N)(=O)=O)C3)[C@H](C)[C@H]12 [Doripenem Hydrate]
scaled lipid accumulation score [6]: inactive: ≤ 0 | scaled lipid accumulation score [1]: inactive: 0.073

Oc1c(I)cc(Cl)c2cccnc12 [Clioquinol]
scaled lipid accumulation score: inactive: ≤ 0

CC(C)(C#N)c1cc(Cn2cncn2)cc(C(C)(C)C#N)c1
scaled lipid accumulation score [1]: inactive: ≤ 0

CC(C)(C#N)c1cc(Cn2cncn2)cc(C(C)(C)C#N)c1 [Anastrozole]
scaled lipid accumulation score [6]: inactive: 0.046 | scaled lipid accumulation score (library stock concentration: 6.8 mM): inactive: ≤ -0.006 | scaled lipid accumulation score [1]: inactive: ≤ 0

COc1cc2nccc(Oc3ccc(NC(=O)Nc4cc(C)on4)c(Cl)c3)c2cc1OC [AV951 (KRN951, Tivozanib) (0.4 mM)]
scaled lipid accumulation score [3]: inactive: ≤ -0.005

COc1cc2nccc(Oc3ccc(NC(=O)Nc4cc(C)on4)c(Cl)c3)c2cc1OC [AV951 (KRN951, Tivozanib) (2 mM)]
scaled lipid accumulation score [4]: inactive: ≤ -0.005

COc1cc2nccc(Oc3ccc(NC(=O)Nc4cc(C)on4)c(Cl)c3)c2cc1OC [AV951 (KRN951, Tivozanib) (10 mM)]
scaled lipid accumulation score [1]: inactive: 0.775

COc1cc2nccc(Oc3ccc(NC(=O)Nc4cc(C)on4)c(Cl)c3)c2cc1OC [Tivozanib (AV-951)]
scaled lipid accumulation score [6]: inactive: 0.068 | scaled lipid accumulation score [1]: inactive: 0.098

COc1cc2nccc(Oc3ccc(NC(=O)Nc4cc(C)on4)c(Cl)c3)c2cc1OC [VEGFR Tyrosine Kinase Inhibitor IV]
scaled lipid accumulation score [6]: inactive: ≤ 0

COc1cc2nccc(Oc3ccc(NC(=O)Nc4cc(C)on4)c(Cl)c3)c2cc1OC
scaled lipid accumulation score [2]: inactive: 0.016 | scaled lipid accumulation score [3]: inactive: ≤ 0 | scaled lipid accumulation score [4]: inactive: 0.009 | scaled lipid accumulation score [1]: inactive: 0.246
